# Measurements from article PMC6614449, “Targeting DNAJB9, a novel ER luminal co-chaperone, to rescue ΔF508-CFTR” (Scientific Reports, 2019).
# B1: DNAJB1 (on the ProtoArray) (natural protein)
# chain: MGKDYYQTLGLARGASDEEIKRAYRRQALRYHPDKNKEPGAEEKFKEIAEAYDVLSDPRKREIFDRYGEEGLKGSGPSGGSGGGANGTSFSYTFHGDPHAMFAEFFGGRNPFDTFFGQRNGEEGMDIDDPFSGFPMGMGGFTNVNFGRSRSAQEPARKKQ[sequence of about 150 residues not given]PERIPQTSRTVLEQVLPI
# notes: DNAJB1, protein spotted on the ProtoArray; source: bought: spotted on ProtoArray protein microarray (Invitrogen / ThermoFisher)
# Target: T1, full length FLAG-CFTR (WT-CFTR) (UniProt P13569 1-1480)
# T1 construct: Cystic Fibrosis transmembrane-conductance regulator (CFTR), wild type, 1,480 amino acids; Surface CFTR was probed with anti-FLAG on fixed cells, so the FLAG tag may lie in an extracellular loop; also called FLAG-WT-CFTR; Cystic Fibrosis transmembrane-conductance regulator; source: HEK293 cells stably expressing it; purified on anti-FLAG resin (ProtoArray) or in whole-cell lysate (co-IP)
# Assay: peptide or protein array; ProtoArray protein microarray (Invitrogen / ThermoFisher) probed with purified full length FLAG-CFTR in solution; bound CFTR detected with mouse anti-FLAG monoclonal antibody and Alexa-488 secondary antibody, fluorescence scanner; mean of duplicate
# Settings: both partners purified
binder,measurement,value
B1,binding result,binds
